# Measured values: PubChem BioAssay AID1259407 (Chemical Carcinogenesis Research Information System (CCRIS), 2018)
# “Also recorded” adds a separate entry of the source. Not every entry of the source has a single result; some have several. The other results are left out here. No rule for the calls is given here. An entry can have further records. The records of an entry differ, and nothing given here explains why; they may come from other doses, times, organisms or constructs than stated. A tag in brackets gives the origin of a value. Letters hold for one entry only. Marks such as (2×) stand for listed records that agree.
# Tested on: CCRIS mutagenicity, Ames/micronucleus/aberration tests
# Experiment: CCRIS mutagenicity studies
smiles,measurement,setting,value
Nc1ccc2cc3ccc(N)cc3nc2c1,mutagenic call,"Test System: AMES SALMONELLA TYPHIMURIUM, Strain/Indicator: TA100, Metabolic Activation: HAMSTER, LIVER, S-9, AROCLOR 1254, Method: STANDARD PLATE",inactive; negative and active; positive (2×)
same,mutagenic call,"Test System: AMES SALMONELLA TYPHIMURIUM, Strain/Indicator: TA100, Metabolic Activation: HAMSTER, LIVER, S-9, Method: STANDARD PLATE",active; positive and inactive; negative
same,mutagenic call,"Test System: AMES SALMONELLA TYPHIMURIUM, Strain/Indicator: TA100, Metabolic Activation: MOUSE, LIVER, S-9, AROCLOR 1254, Method: STANDARD PLATE",active; positive (2×) and inactive; negative
same,mutagenic call,"Test System: AMES SALMONELLA TYPHIMURIUM, Strain/Indicator: TA100, Metabolic Activation: MOUSE, LIVER, S-9, Method: STANDARD PLATE",inactive; negative and active; positive
same,mutagenic call,"Test System: AMES SALMONELLA TYPHIMURIUM, Strain/Indicator: TA1535, Metabolic Activation: HAMSTER, LIVER, S-9, AROCLOR 1254, Method: STANDARD PLATE",inactive; negative (2×) and active; positive
same,mutagenic call,"Test System: AMES SALMONELLA TYPHIMURIUM, Strain/Indicator: TA1535, Metabolic Activation: HAMSTER, LIVER, S-9, Method: STANDARD PLATE",inactive; negative (2×) and active; positive
same,mutagenic call,"Test System: AMES SALMONELLA TYPHIMURIUM, Strain/Indicator: TA1535, Metabolic Activation: MOUSE, LIVER, S-9, Method: STANDARD PLATE",inactive; negative (2×) and active; positive
same,mutagenic call,"Test System: E. COLI, Strain/Indicator: WP2 UVRA, Metabolic Activation: MOUSE, LIVER, S-9, AROCLOR 1254, Method: STANDARD PLATE",inactive; negative and active; positive (2×)
same,mutagenic call,"Test System: E. COLI, Strain/Indicator: WP2 UVRA, Metabolic Activation: RAT, LIVER, S-9, AROCLOR 1254, Method: STANDARD PLATE",inactive; negative and active; positive (2×)
same,mutagenic call,"Test System: E. COLI, Strain/Indicator: WP2 UVRA, Metabolic Activation: RAT, LIVER, S-9, Method: STANDARD PLATE",inactive; negative and active; positive
CN(C)[C@@H]1C(=O)C(C(N)=O)=C(O)[C@@]2(O)C(=O)C3=C(O)c4c(O)cccc4[C@@](C)(O)[C@H]3[C@H](O)[C@@H]12,mutagenic call,"Test System: MOUSE LYMPHOMA, Strain/Indicator: L5178Y (TK+/TK-), Metabolic Activation: NONE, Method: SUSPENSION/PLATE",active; positive [study A] and inactive; negative [study B]
CCCCCC[C@H]1C(=O)O[C@H](C)[C@H](NC(=O)c2cccc(NC=O)c2O)C(=O)O[C@@H](C)[C@@H]1OC(=O)CC(C)C,mutagenic call,"End Point: In vitro chromosomal aberrations, Test System: Chinese hamster ovary (CHO-WBL) cells, Metabolic Activation: None",inactive; negative (2×) and active; positive (polyploidy)
COc1cc(-c2ccc(N=C=O)c(OC)c2)ccc1N=C=O,mutagenic call,"Test System: AMES SALMONELLA TYPHIMURIUM, Strain/Indicator: TA98, Metabolic Activation: NONE, Method: STANDARD PLATE",inactive; negative [0.3 to 1000 µg/plate] and active; positive [0.3 to 3333.3 µg/plate]
same,mutagenic call,"Test System: AMES SALMONELLA TYPHIMURIUM, Strain/Indicator: TA100, Metabolic Activation: RAT, LIVER, S-9, AROCLOR 1254, Method: STANDARD PLATE",inactive; negative [0.3 to 3333.3 µg/plate] and active; positive [1 to 1000 µg/plate]
same,mutagenic call,"Test System: AMES SALMONELLA TYPHIMURIUM, Strain/Indicator: TA100, Metabolic Activation: RAT, LIVER, S-9, Method: STANDARD PLATE",inactive; negative [0.3 to 3333.3 µg/plate] and active; positive [1 to 1000 µg/plate]
same,mutagenic call,"Test System: AMES SALMONELLA TYPHIMURIUM, Strain/Indicator: TA1538, Metabolic Activation: NONE, Method: STANDARD PLATE",inactive; negative [1 to 1000 µg/plate] and active; positive [1 to 3333.3 µg/plate]
O=[N+]([O-])c1ccc(Cl)c([N+](=O)[O-])c1,mutagenic call,"Test System: Ames Salmonella typhimurium, Strain/Indicator: TA1537, Metabolic Activation: None, Method: Preincubation",active; positive and inactive; negative and active; positive (results of retest)
same,mutagenic call,"Test System: E.coli, Strain/Indicator: WP2uvrA/pKM101, Metabolic Activation: None, Method: Preincubation",active; positive (2×) and inactive; negative
same,mutagenic call,"Test System: E.coli, Strain/Indicator: WP2uvrA/pKM101, Metabolic Activation: Rat, Liver, S9, Sodium phenobarbital and 5,6-benzoflavone (10%), Method: Preincubation",active; positive (2×) and inactive; negative
O=[N+]([O-])c1ccc(Oc2c(Cl)cc(Cl)cc2Cl)cc1,mutagenic call,"Test System: AMES SALMONELLA TYPHIMURIUM, Strain/Indicator: YG1021, Metabolic Activation: NONE, Method: PREINCUBATION",active; positive and inactive; negative
same,mutagenic call,"Test System: AMES SALMONELLA TYPHIMURIUM, Strain/Indicator: YG1026, Metabolic Activation: NONE, Method: PREINCUBATION",active; positive and inactive; negative
CC[C@]1(O)CC[C@H]2[C@@H]3CCC4=CC(=O)CC[C@@H]4[C@H]3CC[C@@]21C,mutagenic call,"Test System: UDS RAT HEPATOCYTES, Strain/Indicator: THY INCORP (16 HR), Metabolic Activation: NONE, Method: SCINTILLATION COUNTING",active; positive and inactive; negative
Oc1cc(Cl)ccc1Oc1ccc(Cl)cc1Cl,mutagenic call,"End Point: In vitro chromosomal aberrations, Test System: Chinese hamster V79 cells, Metabolic Activation: None","active; positive (structural); also recorded: inactive; negative; also recorded: active; positive (structural), weak response"
same,mutagenic call,"End Point: In vitro chromosomal aberrations, Test System: Chinese hamster V79 cells, Metabolic Activation: S-9","inactive; negative (2×); also recorded: active; positive (structural), weak response"
